Source: the supplement of paper PMC8728848
Some of the results follow.

How the values were obtained:
Test in all cases: glycan array binding signal (z-score within array); higher = stronger binding
Conditions in all cases: glycan notation: IUPAC condensed, linker removed
[1] = target: Fuc(a1-2)Gal6S(b1-3)GlcNAc
In short: (§1)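 Glycan array binding is given as a within-array Z-score, which can be read as non-binding when negative. The arrays, 3228 of them, came from the Consortium for Functional Glycomics database and were retained only where the protein sequence was available. Z-scores were averaged across arrays of the same protein sequence at different concentrations or buffers and across linkers.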

[2] = target: Fuc(a1-2)Gal6S(b1-3)GlcNAc6S
In short: as §1

[3] = target: Fuc(a1-2)Gal6S(b1-4)Glc
In short: as §1

[4] = target: Fuc(a1-2)Gal6S(b1-4)Glc6S
In short: as §1

[5] = target: Fuc(a1-2)[Gal(a1-3)]Gal
In short: as §1

[6] = target: Fuc(a1-2)[Gal(a1-3)]Gal(b1-3)GalNAc
In short: as §1

[7] = target: Fuc(a1-2)[Gal(a1-3)]Gal(b1-3)GalNAc(b1-3)Gal(a1-4)Gal(b1-4)Glc
In short: as §1

[8] = target: Fuc(a1-2)[Gal(a1-3)]Gal(b1-3)GlcNAc
In short: as §1

[9] = target: Fuc(a1-2)[Gal(a1-3)]Gal(b1-3)GlcNAc(b1-2)Man(a1-3)[Fuc(a1-2)[Gal(a1-3)]Gal(b1-3)GlcNAc(b1-2)Man(a1-6)]Man(b1-4)GlcNAc(b1-4)GlcNAc
In short: as §1

[10] = target: Fuc(a1-2)[Gal(a1-3)]Gal(b1-3)GlcNAc(b1-2)Man(a1-3)[Fuc(a1-2)[Gal(a1-3)]Gal(b1-3)GlcNAc(b1-2)Man(a1-6)]Man(b1-4)GlcNAc(b1-4)[Fuc(a1-6)]GlcNAc
In short: as §1

[11] = target: Fuc(a1-2)[Gal(a1-3)]Gal(b1-3)GlcNAc(b1-3)GalNAc
In short: as §1

[12] = target: Fuc(a1-2)[Gal(a1-3)]Gal(b1-3)GlcNAc(b1-6)GalNAc
In short: as §1

[13] = target: Fuc(a1-2)[Gal(a1-3)]Gal(b1-4)Glc
In short: as §1

[14] = target: Fuc(a1-2)[Gal(a1-3)]Gal(b1-4)GlcNAc
In short: as §1

[15] = target: Fuc(a1-2)[Gal(a1-3)]Gal(b1-4)GlcNAc(b1-2)Man
In short: as §1

[16] = target: Fuc(a1-2)[Gal(a1-3)]Gal(b1-4)GlcNAc(b1-2)Man(a1-3)[Fuc(a1-2)[Gal(a1-3)]Gal(b1-4)GlcNAc(b1-2)Man(a1-6)]Man(b1-4)GlcNAc(b1-4)GlcNAc
In short: as §1

[17] = target: Fuc(a1-2)[Gal(a1-3)]Gal(b1-4)GlcNAc(b1-2)Man(a1-3)[Fuc(a1-2)[Gal(a1-3)]Gal(b1-4)GlcNAc(b1-2)Man(a1-6)]Man(b1-4)GlcNAc(b1-4)[Fuc(a1-6)]GlcNAc
In short: as §1

[18] = target: Fuc(a1-2)[Gal(a1-3)]Gal(b1-4)GlcNAc(b1-3)GalNAc
In short: as §1

[19] = target: Fuc(a1-2)[Gal(a1-3)]Gal(b1-4)GlcNAc(b1-3)[Fuc(a1-2)[Gal(a1-3)]Gal(b1-4)GlcNAc(b1-6)]GalNAc
In short: as §1

[20] = target: Fuc(a1-2)[Gal(a1-3)]Gal(b1-4)GlcNAc(b1-6)GalNAc
In short: as §1

[21] = target: Fuc(a1-2)[Gal(a1-3)]Gal(b1-4)[Fuc(a1-3)]Glc
In short: as §1

[22] = target: Fuc(a1-2)[Gal(a1-3)]Gal(b1-4)[Fuc(a1-3)]GlcNAc
In short: as §1

[23] = target: Fuc(a1-2)[Gal(a1-3)]Gal(b1-4)[Fuc(a1-3)]GlcNAc(b1-3)GalNAc
In short: as §1

[24] = target: Fuc(a1-2)[Gal(a1-4)]Gal(b1-4)GlcNAc
In short: as §1

[25] = target: Fuc(a1-2)[GalNAc(a1-3)]Gal
In short: as §1

[26] = target: Fuc(a1-2)[GalNAc(a1-3)]Gal(b1-3)GalNAc(a1-3)[Fuc(a1-2)]Gal(b1-4)GlcNAc
In short: as §1

[27] = target: Fuc(a1-2)[GalNAc(a1-3)]Gal(b1-3)GalNAc(b1-3)Gal(a1-4)Gal(b1-4)Glc
In short: as §1

[28] = target: Fuc(a1-2)[GalNAc(a1-3)]Gal(b1-3)GlcNAc
In short: as §1

[29] = target: Fuc(a1-2)[GalNAc(a1-3)]Gal(b1-3)GlcNAc(b1-2)Man(a1-3)[Fuc(a1-2)[GalNAc(a1-3)]Gal(b1-3)GlcNAc(b1-2)Man(a1-6)]Man(b1-4)GlcNAc(b1-4)GlcNAc
In short: as §1

[30] = target: Fuc(a1-2)[GalNAc(a1-3)]Gal(b1-3)GlcNAc(b1-2)Man(a1-3)[Fuc(a1-2)[GalNAc(a1-3)]Gal(b1-3)GlcNAc(b1-2)Man(a1-6)]Man(b1-4)GlcNAc(b1-4)[Fuc(a1-6)]GlcNAc
In short: as §1

[31] = target: Fuc(a1-2)[GalNAc(a1-3)]Gal(b1-3)GlcNAc(b1-3)GalNAc
In short: as §1

[32] = target: Fuc(a1-2)[GalNAc(a1-3)]Gal(b1-3)GlcNAc(b1-6)GalNAc
In short: as §1

[33] = target: Fuc(a1-2)[GalNAc(a1-3)]Gal(b1-4)Glc
In short: as §1

[34] = target: Fuc(a1-2)[GalNAc(a1-3)]Gal(b1-4)GlcNAc
In short: as §1

[35] = target: Fuc(a1-2)[GalNAc(a1-3)]Gal(b1-4)GlcNAc(b1-2)Man
In short: as §1

[36] = target: Fuc(a1-2)[GalNAc(a1-3)]Gal(b1-4)GlcNAc(b1-2)Man(a1-3)[Fuc(a1-2)[GalNAc(a1-3)]Gal(b1-4)GlcNAc(b1-2)Man(a1-6)]Man(b1-4)GlcNAc(b1-4)GlcNAc
In short: as §1

[37] = target: Fuc(a1-2)[GalNAc(a1-3)]Gal(b1-4)GlcNAc(b1-2)Man(a1-3)[Fuc(a1-2)[GalNAc(a1-3)]Gal(b1-4)GlcNAc(b1-2)Man(a1-6)]Man(b1-4)GlcNAc(b1-4)[Fuc(a1-6)]GlcNAc
In short: as §1

[38] = target: Fuc(a1-2)[GalNAc(a1-3)]Gal(b1-4)GlcNAc(b1-3)Gal(b1-4)GlcNAc
In short: as §1

[39] = target: Fuc(a1-2)[GalNAc(a1-3)]Gal(b1-4)GlcNAc(b1-3)Gal(b1-4)GlcNAc(b1-3)Gal(b1-4)GlcNAc
In short: as §1

[40] = target: Fuc(a1-2)[GalNAc(a1-3)]Gal(b1-4)GlcNAc(b1-3)GalNAc
In short: as §1

[41] = target: Fuc(a1-2)[GalNAc(a1-3)]Gal(b1-4)GlcNAc(b1-3)[Fuc(a1-2)[GalNAc(a1-3)]Gal(b1-4)GlcNAc(b1-6)]GalNAc
In short: as §1

[42] = target: Fuc(a1-2)[GalNAc(a1-3)]Gal(b1-4)GlcNAc(b1-6)GalNAc
In short: as §1

[43] = target: Fuc(a1-2)[GalNAc(a1-3)]Gal(b1-4)[Fuc(a1-3)]GlcNAc
In short: as §1

[44] = target: Fuc(a1-2)[GalNAc(a1-3)]Gal(b1-4)[Fuc(a1-3)]GlcNAc(b1-3)GalNAc
In short: as §1

[45] = target: Fuc(a1-2)[GalNAc(a1-4)]Gal(b1-4)GlcNAc
In short: as §1

B1: HBHA-Rv (Mycobacterium tuberculosum), P0A5P6 (protein)
chain: MAENSNIDDIKAPLLAALGAADLALATVNELITNLRERAEETRTDTRSRVEESRARLTKLQEDLPEQLTELREKFTAEELRKAAEGYLEAATSRYNELVERGEAALERLRSQQSFEEVSARAEGYVDQAVELTQEALGTVASQTRAVGERAAKLVGIELPKKAAPAKKAAPAKKAAPAKKAAAKKAPAKKAAAKKVTQK
- glycan array binding signal (z-score) [1]: -0.227
- glycan array binding signal (z-score) [2]: 4.34
- glycan array binding signal (z-score) [3]: 0.069
- glycan array binding signal (z-score) [4]: 0.366
- glycan array binding signal (z-score) [5]: 0.108
- glycan array binding signal (z-score) [6]: 0.154
- glycan array binding signal (z-score) [7]: -0.449
- glycan array binding signal (z-score) [8]: 0.946
- glycan array binding signal (z-score) [9]: -0.386
- glycan array binding signal (z-score) [10]: -0.281
- glycan array binding signal (z-score) [11]: -0.259
- glycan array binding signal (z-score) [12]: -0.326
- glycan array binding signal (z-score) [13]: 0.932
- glycan array binding signal (z-score) [14]: -0.209
- glycan array binding signal (z-score) [15]: -0.305
- glycan array binding signal (z-score) [16]: -0.445
- glycan array binding signal (z-score) [17]: -0.437
- glycan array binding signal (z-score) [18]: -0.204
- glycan array binding signal (z-score) [19]: 2.82
- glycan array binding signal (z-score) [20]: -0.329
- glycan array binding signal (z-score) [21]: -0.399
- glycan array binding signal (z-score) [22]: 0.961
- glycan array binding signal (z-score) [23]: -0.19
- glycan array binding signal (z-score) [24]: 0.274
- glycan array binding signal (z-score) [25]: 0.042
- glycan array binding signal (z-score) [26]: -0.141
- glycan array binding signal (z-score) [27]: -0.404
- glycan array binding signal (z-score) [28]: 0.418
- glycan array binding signal (z-score) [29]: -0.467
- glycan array binding signal (z-score) [30]: -0.165
- glycan array binding signal (z-score) [31]: -0.274
- glycan array binding signal (z-score) [32]: -0.378
- glycan array binding signal (z-score) [33]: 0.064
- glycan array binding signal (z-score) [34]: -0.201
- glycan array binding signal (z-score) [35]: -0.39
- glycan array binding signal (z-score) [36]: -0.377
- glycan array binding signal (z-score) [37]: 0.325
- glycan array binding signal (z-score) [38]: -0.448
- glycan array binding signal (z-score) [39]: -0.385
- glycan array binding signal (z-score) [40]: -0.256
- glycan array binding signal (z-score) [41]: 0.262
- glycan array binding signal (z-score) [42]: -0.434
- glycan array binding signal (z-score) [43]: 0.081
- glycan array binding signal (z-score) [44]: -0.185
- glycan array binding signal (z-score) [45]: -0.184
